Measured values: PubChem BioAssay AID504832 (National Center for Advancing Translational Sciences (NCATS), 2011)
The campaign covered roughly 310,000 compounds. About 18,000 (5.8%) were called active. This list was built around the results that the source calls inconclusive (neither active nor inactive); the mix of calls is not that of the screen. Calls follow the shape of the dose curve; as a rule, active = well fitted inhibition curve with a large enough effect; inconclusive = small, poorly fitted or top-dose-only effect, or another doubt; inactive = no such curve, though single readings can be large or run the other way. No potency is given beside an inconclusive call; the fits are too rough. Residues, ends and D or L forms follow the SMILES beside them.

Assay: Primary qHTS for delayed death inhibitors of the malarial parasite plastid, 48 hour incubation
Conditions: P. falciparum luciferase growth in erythrocytes; series mostly up to 28.7 µM
Outline: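 Compounds are pin-transferred into medium, infected erythrocytes (2% hematocrit, 0.1% parasitemia final) are added, and plates sit one parasite generation at 37 C in 5% CO2. Detection reagent is then added and luminescence measured.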
Potency is read from the fitted curve at half-maximal effect; tags tell the direction and shape of the fitted curve.

Row | SMILES | Potency
1 | CCCCCCSc1nsc(NC(=O)CC(C)C)n1 | inactive
2 | CC(C)C(O)C1CCN(Cc2nc(-c3cccs3)no2)CC1 (stereo not drawn) | inconclusive [inhibitor, full curve]
3 | CCCc1nc2n[nH]c(N)c2c2c1CCC2 | inconclusive [inhibitor, full curve, poor fit]
4 | O=C(CCN1CCN(c2ccccc2)CC1)Nc1cccc(Br)c1 | inconclusive [inhibitor, single point]
5 | C/C(=N\NC(=S)Nc1c(C)cccc1C)c1cc2ccccc2o1 | inconclusive [inhibitor, single point]
6 | Cc1ccc(CN2CC(C(=O)N3CC(C)CC(C)C3)CC2=O)cc1 (stereo not drawn) | inconclusive [inhibitor, single point]
7 | CN(C)CCCN(C(=O)c1cc(Cl)sc1Cl)c1nc2cc3c(cc2s1)OCO3 | inconclusive [inhibitor, single point]
8 | CCOC(=O)C1(Cc2ccccc2C)CCCN(C(=O)CCc2c(C)noc2C)C1 (stereo not drawn) | inconclusive [inhibitor, partial curve]
9 | Cc1ccc(N(O)C(=O)NCCCCNC(=O)N(O)c2ccc(C)cc2)cc1 | inconclusive [inhibitor, single point]
10 | COc1ccc2nc(NC(=O)c3cccc(-c4cc5ccccc5oc4=O)c3)sc2c1 | inconclusive [inhibitor, single point]
11 | NC(=O)C1CCN(C(=O)CCC(=O)c2ccc(Br)cc2)CC1 | inactive
12 | COc1ccc(C)cc1S(=O)(=O)N1CCC(C(=O)NCCC2=CCCCC2)CC1 | inconclusive [inhibitor, single point]
13 | CCC(C)(C)n1nnnc1C(c1ccc(C)cc1)N(Cc1ccco1)Cc1cccs1 (stereo not drawn) | active: 4.65 µM
14 | CCOC(=O)N1CCN(C(=O)CN(Cc2ccccc2)S(=O)(=O)c2ccc(OC)c(Cl)c2)CC1 | inconclusive [inhibitor, full curve, poor fit]
15 | Cc1nn(Cc2c(F)c(F)c(F)c(F)c2F)c(C)c1NC(=O)c1ccc(COc2ccccc2Cl)o1 | inconclusive [inhibitor, partial curve, poor fit]
16 | CC(NC(=O)c1ccc(NC(=O)c2ccco2)cc1)c1ccccc1 (stereo not drawn) | inactive
17 | CC1CCN(C(=O)c2ccc(-c3ccccc3Cl)o2)CC1 | inactive
18 | CCOC(=O)C1CCN(C(=O)Cc2ccc(-c3ccccc3)cc2)CC1 | inconclusive [inhibitor, full curve, poor fit]
19 | CCOC(=O)C1CCN(C(=O)c2ccc3c(=O)n4nc(Nc5cc(C)ccc5C)sc4nc3c2)CC1 | inconclusive [inhibitor, single point]
20 | Cc1cccc(C)c1NC(=O)C1(C)c2cccc[n+]2CC(=O)N1Cc1cccs1 (stereo not drawn) | inconclusive [inhibitor, partial curve]
21 | CC(=O)Nc1ccc(C(=O)Cn2c3[n+](c4c(F)c(F)ccc42)CCCCC3)cc1 | inconclusive [inhibitor, partial curve, poor fit]
22 | COC(=O)c1ccccc1NC(=O)CSc1nnc(-c2cccnc2)o1 | inactive
23 | Cc1ccc(N(CC(O)CON=C2c3ccccc3-c3ccccc32)S(C)(=O)=O)cc1 (stereo not drawn) | inconclusive [inhibitor, single point]

Row | SMILES | Potency
24 | COc1ccc2nc(C)cc(Nc3ccccc3O)c2c1 | inconclusive [inhibitor, full curve, poor fit]
25 | C/C(CC(=O)Nc1ccc(C)c(Cl)c1)=N\NC(=O)C1CCCCC1 | inactive
26 | COc1ccc(C(=O)COC(=O)CNC(=O)c2ccccc2)cc1F | inconclusive [inhibitor, full curve, poor fit]
27 | CCCCCC(=O)Nc1cccc(C2=NOC3(C2)C[C@H](C(N)=O)N(C(=O)COc2ccc(Cl)cc2)C3)c1 (stereo partly drawn) | inconclusive [inhibitor, single point]
28 | CCC(=O)N1CCc2cc(S(=O)(=O)CCC(=O)Nc3nc(C)cs3)ccc21 | inconclusive [inhibitor, single point]
29 | COc1ccc(OC)c(-n2c(O)c(C=NCc3ccc4c(c3)OCO4)c(=O)[nH]c2=O)c1 | inconclusive [inhibitor, partial curve, poor fit]
30 | CCn1cc(C(=O)N2CCN(c3ccc(C(C)=O)cc3)CC2)c2cc(OC)c(OC)cc2c1=O | inconclusive [inhibitor, single point]
31 | COc1ccc(-c2nnc(SC(C)C(=O)Nc3nccs3)n2-c2ccccc2)cc1OC (stereo not drawn) | inconclusive [inhibitor, partial curve, poor fit]
32 | CCOC(=O)c1cc(-c2ccccc2)n(CC(=O)Nc2ccc(OC)c(OC)c2)c1C | inactive
33 | COc1ccc(C2CCCN2CC(O)COc2ccccc2C(C)C)cc1 (stereo not drawn) | active: 11.7 µM
34 | Cc1cc(NC(=O)c2c(F)c(F)c(F)c(F)c2F)no1 | inconclusive [inhibitor, single point]
35 | CCCCc1ccc(Nc2nc(CCC)cc(=O)[nH]2)cc1 | active: 10.4 µM
36 | O=C(COC(=O)c1ccc(OC(F)F)cc1)Nc1cccc(S(=O)(=O)NC2=NCCC2)c1 | inconclusive [inhibitor, single point]
37 | O=c1c2ccccc2[nH]c(=S)n1CCN1CCc2ccccc2C1 | inconclusive [inhibitor, single point]
38 | Cc1ccccc1CN1C(=O)C(O)(CC(=O)c2ccncc2)c2ccccc21 (stereo not drawn) | inactive
39 | CCOC(=O)N1CCN(C(=O)/C(=C/c2ccc(N(C)C)cc2)NC(=O)c2ccccc2)CC1 | inconclusive [inhibitor, single point]
40 | Cc1ccc2sc(N3CCN(C(=O)C4=COCCO4)CC3)nc2c1C | inconclusive [inhibitor, single point]
41 | O=C(CN1C(=O)/C(=C/c2ccccc2)SC1=S)N1CCN(CCc2ccccn2)CC1 | inactive
42 | Cc1cc(S(=O)(=O)NCCC2=CCCCC2)ccc1Br | inactive
43 | Cc1cc(C(C)(C)CC(C)(C)C)ccc1OCCOCC[N+](C)(C)Cc1ccccc1 | active: 1.65 µM
44 | O=C1/C(=C/c2ccc([N+](=O)[O-])cc2)C=C(c2ccccc2)N1c1ccccc1 | inactive
45 | O=C(Nc1ccc(S(=O)(=O)N2CCCCC2)cc1)c1ccc(F)cc1 | inactive
46 | CC(=O)N[C@@H](CC(=O)O)C(=O)N[C@@H](CCC(=O)O)C(=O)O (Ac-Asp-Glu-OH) | inconclusive [inhibitor, single point]

Row | SMILES | Potency
47 | CC(C)(C)NC(=O)C(c1ccco1)N(C(=O)Cn1nnc(-c2ccc(F)cc2)n1)c1ccccc1F (stereo not drawn) | inconclusive [inhibitor, partial curve]
48 | Cn1cccc1C(=O)NC(=O)COC(=O)CCNS(=O)(=O)c1cccc(C(F)(F)F)c1 | inactive
49 | CN(C)CCCn1c(=O)n(CCc2ccccc2)c(=O)c2c3c(sc21)CCCCC3 | inconclusive [inhibitor, single point]
50 | CCn1cc(CN2CCN(CC(C)(C)C)C(CCO)C2)c2ccccc21 (stereo not drawn) | inconclusive [inhibitor, partial curve]
51 | O=C(c1ccc(Cl)cc1)N1CCCC(C(=O)N2CCN(c3ccccc3)CC2)C1 (stereo not drawn) | inconclusive [inhibitor, partial curve, poor fit]
52 | CCN(C(=O)Cn1c(=O)oc2cc(S(=O)(=O)N3CCOCC3)ccc21)c1ccccc1 | inconclusive [inhibitor, partial curve, poor fit]
53 | CCOc1ccc(C(=O)NCC(=O)N2CCN(c3ccc(C(F)(F)F)cn3)CC2)cc1 | inactive
54 | COc1ccc(C(C)NC(=O)C23CC4CC(CC(C4)C2)C3)cc1 (stereo not drawn) | inactive
55 | O=C1c2ccccc2C(=O)c2ccccc21 | inconclusive [inhibitor, single point]
56 | Cc1ccc(C2CC(=O)C=C(NCC(C)C)C2)cc1 (stereo not drawn) | inconclusive [inhibitor, partial curve, poor fit]
57 | O=C(NCCCCc1ccccc1)c1cccc(Br)c1 | inactive
58 | CCCC(=O)Nc1cc2c3c(c1)C(C)C(=O)N3CCC2 (stereo not drawn) | inactive
59 | O=C(NCc1ccco1)C1CCN(S(=O)(=O)c2ccccc2C(F)(F)F)CC1 | active: 10.4 µM
60 | CCc1ccc2oc(C(=O)NCc3ccc(S(N)(=O)=O)cc3)c(C)c2c1 | inactive
61 | Nc1nonc1-n1nnc(C(=O)N/N=C/c2ccc(OCc3ccc(F)cc3)cc2)c1COc1ccccc1 | inactive
62 | Cc1cc(C)c(NC(=S)NC(=O)c2ccc(-c3ccccc3)cc2)c(C)c1 | inactive
63 | CCN1CCN(Cc2ccc(NC(=O)c3ccc(C)c(NC(=O)C4=NN(c5ccccc5)C(=O)C4)c3)cc2C(F)(F)F)CC1 | active: 0.415 µM
64 | COc1cc(OC)c(OC)cc1/C=N/NC(=O)c1ccc(=O)n(C)c1 | inconclusive [inhibitor, partial curve, poor fit]
65 | O=C(CC(C(=O)NCc1ccccc1)c1nc2ccccc2c(=O)[nH]1)NCc1ccccc1 (stereo not drawn) | inconclusive [inhibitor, single point]
66 | c1cc(-c2sc(-c3ccncc3)c(-c3ccncc3)c2-c2ccncc2)ccn1 | inconclusive [inhibitor, single point]
67 | CCN(CC)c1ccc(NC(=O)c2ccc(Br)o2)c(C)c1 | active: 7.38 µM
68 | C=CCC(C(=O)Oc1c(C(C)(C)C)cc(C)cc1C(C)(C)C)c1ccccc1 (stereo not drawn) | inconclusive [inhibitor, single point]
